Data reported in the RNAGym collection of RNA variant scans (doi:10.1093/nar/gkz1192).
The source gives no read counts; variants with many changes may rest on few reads.

B1: CPEB3 Ribozyme (parent)
chain: UAACAGGGGGCCACAGCAGAAGCGUUCACGUCGCAGCCCCUGUCAGAUUCUGGUGAAUCUGCGAAUUCUGCUGUAUAUCUC

Variants of: B1
Assay: self-cleavage, relative activity (ratio to wild type); higher = more cleavage; in vitro, sequencing
Outline: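 Relative activity was defined as the cleaved/total read fraction for a variant divided by the same fraction for the unmutated ribozyme. CPEB3 self-cleaving ribozyme libraries were made by rounds of error-prone PCR, barcoded, and transcribed in vitro with T7 RNA polymerase for 5 hours at 37°C, and cleavage ran through transcription plus a 15 min DNase I step before EDTA. Illumina sequencing of template-switched reverse transcripts gave the reads, and DNA sequencing mapped the barcodes. Averages come from three batches, using variants with at least 5 reads.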

Row | Variant | self-cleavage
1 | A5G A13G G24A A35G U43A A56G U58C | 0.04
2 | A5G A13G G24A C38A U41G U74A | 0.08
3 | A5G A13G G24A C38G A64G | 0.04
4 | A5G A13G G24U U31C A47G | 0.29
5 | A5G A13G G42A U60C A64U | 0.34
6 | A5G A13G G46A A64G C71A U80C | 0.15
7 | A5G A13G G63A | 0.18
8 | A5G A13G U25C | 0.36
9 | A5G A13G U25C C37U G70C U78C | 0.23
10 | A5G A13G U26C C44G U72C | 0.09
11 | A5G A13G U26C U60C U67C A77G | 0.12
12 | A5G A13G U26C U72C | 0.19
13 | A5G A13G U26G A45U A57C | 0.05
14 | A5G A13G U31A A47U | 0.42
15 | A5G A13G U31A C38A U49G A64C | 0.14
16 | A5G A13G U31C A64U | 0.1
17 | A5G A13G U41C U43C | 0.14
18 | A5G A13G U43C U49C G70C | 0
19 | A5G A13G U43C U69A | 0.08
20 | A5G A13G U51A A56U U76A | 0.07
21 | A5G A13G U51A U54A A75U U78C | 0.51

Row | Variant | self-cleavage
22 | A5G A13G U54A U58C | 0.71
23 | A5G A13G U54C U80C | 0.32
24 | A5G A13G U66C | 0.1
25 | A5G A13G U69C U80C | 0.2
26 | A5G A13U A15C U26A U49A U74C | 0.15
27 | A5G A13U A15G A21G U74A | 0.53
28 | A5G A13U A15U A28U U54C | 0.14
29 | A5G A13U A18U A20U A28G U66C | 0.29
30 | A5G A13U A18U A45G U54C U72C | 0.13
31 | A5G A13U A20G U26C A28G U58A U78C | 0.03
32 | A5G A13U A20G U41C U60A U69C A77G | 0.14
33 | A5G A13U A20G U43A U80C | 0.81
34 | A5G A13U A20G U60C | 0.08
35 | A5G A13U A20U A28G A35G U66C | 0.27
36 | A5G A13U A21G C38G U51A U76A | 0.05
37 | A5G A13U A21G C68G | 0.15
38 | A5G A13U A21G G36C U51C U54C | 0.13
39 | A5G A13U A21G U41A | 0.33
40 | A5G A13U A21U U31C | 0.25
41 | A5G A13U A21U U74A | 0.44
42 | A5G A13U A28G | 0.51

Row | Variant | self-cleavage
43 | A5G A13U A28G A35G U41A U54C U58C | 0.17
44 | A5G A13U A28U U31A U49C A65C U66A | 0.07
45 | A5G A13U A45G U72C | 0.65
46 | A5G A13U A47G | 0.91
47 | A5G A13U A47G U60A U67G U80C | 0
48 | A5G A13U A47G U67C U69A U78C | 0.32
49 | A5G A13U A57G U66C | 0.16
50 | A5G A13U A64G U69A | 0.6
51 | A5G A13U A65C U72A | 0.16
52 | A5G A13U C29A U48A U54A | 0.1
53 | A5G A13U C29U A35G U80A | 0.27
54 | A5G A13U C37A U54C U66C | 0.09
55 | A5G A13U C37U | 0.5
56 | A5G A13U C39A U41A | 0.47
57 | A5G A13U U25C A35U U41C U51A | 0.09
58 | A5G A13U U25C A57G U58G | 0.14
59 | A5G A13U U25C A77U | 0.07
60 | A5G A13U U26C | 0.67
61 | A5G A13U U31A A56G U67C | 0.11
62 | A5G A13U U31A U48C U78G | 0.14
63 | A5G A13U U31C U43G A64U U80A | 0.07

Row | Variant | self-cleavage
64 | A5G A13U U41A A45U U49A U80C | 0.71
65 | A5G A13U U41A U48A U49C | 0.25
66 | A5G A13U U41C U51C U80A | 0.54
67 | A5G A13U U49A C50A U76C | 0.42
68 | A5G A13U U49A U67A U80C | 0.07
69 | A5G A13U U49G U69C | 0.14
70 | A5G A13U U51A | 0.59
71 | A5G A13U U54C A64U | 0.1
72 | A5G A13U U58C | 0.58
73 | A5G A13U U66C | 0.26
74 | A5G A13U U69A | 0.48
75 | A5G A13U U78C | 0.88
76 | A5G A15C A21G U25C A45U | 0.58
77 | A5G A15C G33U G73U | 0.45
78 | A5G A15C U25C U72C | 0.11
79 | A5G A15C U31C U78A | 0.99
80 | A5G A15C U51A A56U U60C | 0.12
81 | A5G A15C U54C U60A | 0.05
82 | A5G A15G A18G G30A U72C | 0.29
83 | A5G A15G A18G U78C | 0.09
